Test results taken from paper PMC4336329 (PLoS ONE, 2015).
The whole screen tested about 310,000 compounds, of which about 2,200 (0.71%) showed an effect of 50% or more. Effects have a minus sign here. The list shows a part of the results.

Target: human ether-à-go-go-related gene (hERG) potassium channel (human, UniProt Q12809)
Assay: primary screen, population patch clamp on CHO cells stably expressing hERG

human ether-à-go-go-related gene (hERG) potassium channel, sequence (Q12809 whole entry, looked up): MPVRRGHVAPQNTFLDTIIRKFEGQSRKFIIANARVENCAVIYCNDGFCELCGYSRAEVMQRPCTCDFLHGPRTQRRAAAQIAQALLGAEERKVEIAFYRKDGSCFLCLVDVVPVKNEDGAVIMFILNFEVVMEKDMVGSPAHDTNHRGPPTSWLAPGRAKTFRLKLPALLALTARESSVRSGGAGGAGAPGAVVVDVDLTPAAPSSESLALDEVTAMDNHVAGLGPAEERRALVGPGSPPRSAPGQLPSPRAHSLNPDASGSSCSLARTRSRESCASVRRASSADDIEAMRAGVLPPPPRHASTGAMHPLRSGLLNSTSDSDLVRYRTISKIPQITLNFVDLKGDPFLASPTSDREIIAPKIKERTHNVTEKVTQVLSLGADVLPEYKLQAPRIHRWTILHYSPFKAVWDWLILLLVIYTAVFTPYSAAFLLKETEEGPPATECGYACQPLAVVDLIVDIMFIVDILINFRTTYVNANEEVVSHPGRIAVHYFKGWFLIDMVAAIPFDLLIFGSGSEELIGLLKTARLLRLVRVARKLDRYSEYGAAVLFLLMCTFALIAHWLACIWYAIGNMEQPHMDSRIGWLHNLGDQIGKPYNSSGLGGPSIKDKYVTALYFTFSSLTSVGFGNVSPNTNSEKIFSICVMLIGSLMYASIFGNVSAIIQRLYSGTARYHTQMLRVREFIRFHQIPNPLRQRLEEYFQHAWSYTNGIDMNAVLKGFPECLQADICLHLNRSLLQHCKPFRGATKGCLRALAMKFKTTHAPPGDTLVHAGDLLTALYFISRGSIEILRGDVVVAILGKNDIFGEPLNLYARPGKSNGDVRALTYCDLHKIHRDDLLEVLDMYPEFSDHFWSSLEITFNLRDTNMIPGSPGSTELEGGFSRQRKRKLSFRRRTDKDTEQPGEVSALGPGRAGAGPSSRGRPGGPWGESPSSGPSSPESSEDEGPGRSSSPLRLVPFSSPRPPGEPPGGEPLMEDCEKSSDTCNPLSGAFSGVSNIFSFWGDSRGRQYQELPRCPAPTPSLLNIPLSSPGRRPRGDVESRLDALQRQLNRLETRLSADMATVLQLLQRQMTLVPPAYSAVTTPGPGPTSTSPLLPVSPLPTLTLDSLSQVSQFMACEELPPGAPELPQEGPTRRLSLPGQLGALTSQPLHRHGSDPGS

Structure (SMILES)	hERG current change (%, negative = inhibition) at 1uM
Cc1cc(C)c(C(=O)Cn2nc(C(=O)O)c3ccccc3c2=O)cc1C	13.3%
Cc1noc(NS(=O)(=O)c2ccc(NC(=O)COc3ccc(Cl)cc3Cl)cc2)c1C	-6.64%
CCC(=O)Nc1ccc(S(=O)(=O)N2CCCCC2)cc1OC	-3.55%
CC(=O)c1cn(C)c(=O)c2ccccc12	15.5%
CN(C)S(=O)(=O)c1ccc(C(=O)OCc2nnc(-c3ccccc3)o2)cc1	11.7%
Cc1ccc(-n2[nH]c(=O)c(-c3ccccn3)c2C)cc1	10.2%
Cc1nn(CC(=O)Nc2ccc(S(N)(=O)=O)cc2)c(=O)c2ccccc12	8.36%
COC1=C(c2ccccc2)C(=O)c2ccccc2C1=O	4.18%
c1ccc(-c2ccnc3ncnn23)nc1	10.2%
CN(CC(=O)Nc1ccc(Cl)c(C(F)(F)F)c1)C(=O)CC1Sc2ccccc2NC1=O (stereo not shown)	3.84%
O=C1CC(c2ccccc2)Oc2cc(O)cc(O)c21 (stereo not shown)	11.1%
COc1cccc(-n2c(COc3ccc(C)cc3)nnc2SCC(N)=O)c1	9.18%
Cc1ccc(CNC(=O)C2CC(c3ccccc3[N+](=O)[O-])=NO2)o1 (stereo not shown)	16.2%
CC1(C)C(C=C(Cl)Cl)C1C(=O)NC(O)C(=O)c1ccccc1 (stereo not shown)	15.6%
Cc1ccc(/C=N/NC(=S)NC2CCS(=O)(=O)C2)cc1 (stereo not shown)	9.41%
C/C(=N\Nc1nccnc1Cl)c1ccc(O)cc1	20.2%
CCOc1cc(CNCC2CCCN2CC)cc(Cl)c1OC.Cl (stereo not shown)	6.02%
COc1ccc(Cl)cc1NC(=O)CN(C)C(=O)c1cc(C)oc1C	-0.865%
O=c1oc(-c2cccc([N+](=O)[O-])c2)nc2ccccc12	14.4%
COc1ccc2nc(N=Nc3ccc(O)c4ccccc34)sc2c1	-0.728%

Structure (SMILES)	hERG current change (%, negative = inhibition) at 1uM
CC(c1ccco1)N(C(=O)Nc1ccc(Cl)cc1)c1ccccn1 (stereo not shown)	5%
C/C(N)=C(/C#N)C(=O)COC(=O)CCSc1ccccc1Cl	12.1%
CCOc1ccc(S(=O)(=O)N(C)CC(=O)NC2CCCC2)cc1	2.85%
COCC(C)NC(=S)NC(=O)c1cc(S(=O)(=O)N2CCOCC2)ccc1C (stereo not shown)	11.3%
CC(OC(=O)/C=C/c1cccs1)C(=O)Nc1ccc(C(N)=O)cc1 (stereo not shown)	7.57%
CN1CCc2nc(NC(=O)c3cccc(S(=O)(=O)N4CCc5ccccc54)c3)sc2C1	8.61%
C=CCNC(=S)NNC(=O)COc1cccc(Cl)c1	-3.39%
CCOC(=O)Cn1c(=O)c(-c2ccccc2NCc2ccccc2)nc2ccccc21	12.9%
COc1ccc(CCN2C(=O)C3C4CC(C5C(C(=O)O)=NOC45)C3C2=O)cc1OC (stereo not shown)	18.8%
COc1ccccc1CNC(=O)COC(=O)c1sc(C)nc1C	-5.76%
CCC(=O)Nc1cccc(C2=NOC3(C2)C[C@H](C(N)=O)N(C(=O)CC#N)C3)c1 (stereo partly shown)	9.75%
CCCCCn1nc(C(=O)N(CC(C)C)c2c(N)n(CCCC)c(=O)[nH]c2=O)c2ccccc2c1=O	0.587%
COc1ccc2nc(NC(=O)C3CCN(C(=O)c4ccc(F)cc4)CC3)sc2c1	6.73%
COCCN1C=C(C(=O)OC)C(c2ccc(OC)c(OC)c2)C(C(=O)OC)=C1	7.83%
CC1CCN(S(=O)(=O)c2ccc(NC(=O)[C@@H]3CCCN3C(=O)c3cccs3)cc2)CC1	6.15%
COC(=O)c1cc2occc2n1Cc1nc(-c2cccc(Cl)c2)oc1C	11.1%
Cc1ccc(-c2ccc(C(=O)NCc3ccccc3)o2)c2ccccc12	5.47%
CCC(C)c1ccc(NC(=O)c2cnn3c(C(F)F)cc(C)nc23)cc1 (stereo not shown)	9.4%
CC(C)OCC(O)CN (stereo not shown)	4.04%
COc1ccc(-c2n[nH]c(=S)nc2-c2ccc(OC)cc2)cc1	18.5%

Structure (SMILES)	hERG current change (%, negative = inhibition) at 1uM
C=C(C)COc1ccc(-c2[nH]ncc2-c2ccccc2OC)c(O)c1	1.13%
NNC(=O)C(=O)NCCCN1CCOCC1	17.4%
CC(C)Oc1ccc(C2CCC(=O)NC2=O)cc1 (stereo not shown)	10.8%
CCOC(=O)c1cnc(-n2nc(C)cc2C)nc1Nc1ccc(O)cc1	14.2%
Cc1cc(C(=O)N2CCN(c3ccc(C(F)(F)F)cn3)CC2)c(C)o1	2.84%
COCCn1nnnc1C(c1ccccn1)N1CCN(c2cccc(C)c2C)CC1 (stereo not shown)	0.646%
COc1ccc(CCNC(=O)CSc2ccc(-c3cccs3)nn2)cc1OC	9.88%
CC(=O)Nc1ccc(S(=O)(=O)Oc2ccc(Br)cc2C(=S)N2CCOCC2)cc1	11.4%
COc1ccccc1CNC(=O)[C@H](C)N1C(=O)N2CCc3c([nH]c4ccccc34)[C@@]2(C)C1=O	-5.02%
Cc1sc2ncnc(SCC(=O)NC(C)(C)C)c2c1C	12.4%
Clc1ccc(OCc2nn3c(-c4ccncc4)nnc3s2)cc1	0.946%
O=C(C1CCC1)N1CCc2cc(S(=O)(=O)NC3CCCC3)ccc21	9.5%
Cc1cccc(NC(=O)COC(=O)COc2ccc3c(c2)CCC3)c1	11.7%
CCOc1cccc(C(=O)NC(=S)NCc2cccnc2)c1	4.21%
CCn1nnnc1SCC(=O)c1cc(OC)ccc1OC	-0.278%
CC(=O)c1c(C)[nH]c(C(=O)N2CCN(c3ccc(F)cc3)CC2)c1C	-11.3%
O=C1NC(=S)N/C1=C/c1cccc([N+](=O)[O-])c1	17%
Cl.O=S(=O)(N1CCCCCC1)N1CCNCC1	15.2%
